Each structure is given as a SMILES string. The campaign covered roughly 310,000 compounds. About 14,000 (4.5%) showed an effect of 50% or more. The effect is printed as a negative number. The list shows a part of the results.
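Note: peak tail current of the secondary pulse compared with the same well before compound.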

In this test the target is human ether-à-go-go-related gene (hERG) potassium channel (human, UniProt Q12809). The test is described as follows: primary screen, population patch clamp on CHO cells stably expressing hERG.
Chain of human ether-à-go-go-related gene (hERG) potassium channel (Q12809 whole entry, looked up): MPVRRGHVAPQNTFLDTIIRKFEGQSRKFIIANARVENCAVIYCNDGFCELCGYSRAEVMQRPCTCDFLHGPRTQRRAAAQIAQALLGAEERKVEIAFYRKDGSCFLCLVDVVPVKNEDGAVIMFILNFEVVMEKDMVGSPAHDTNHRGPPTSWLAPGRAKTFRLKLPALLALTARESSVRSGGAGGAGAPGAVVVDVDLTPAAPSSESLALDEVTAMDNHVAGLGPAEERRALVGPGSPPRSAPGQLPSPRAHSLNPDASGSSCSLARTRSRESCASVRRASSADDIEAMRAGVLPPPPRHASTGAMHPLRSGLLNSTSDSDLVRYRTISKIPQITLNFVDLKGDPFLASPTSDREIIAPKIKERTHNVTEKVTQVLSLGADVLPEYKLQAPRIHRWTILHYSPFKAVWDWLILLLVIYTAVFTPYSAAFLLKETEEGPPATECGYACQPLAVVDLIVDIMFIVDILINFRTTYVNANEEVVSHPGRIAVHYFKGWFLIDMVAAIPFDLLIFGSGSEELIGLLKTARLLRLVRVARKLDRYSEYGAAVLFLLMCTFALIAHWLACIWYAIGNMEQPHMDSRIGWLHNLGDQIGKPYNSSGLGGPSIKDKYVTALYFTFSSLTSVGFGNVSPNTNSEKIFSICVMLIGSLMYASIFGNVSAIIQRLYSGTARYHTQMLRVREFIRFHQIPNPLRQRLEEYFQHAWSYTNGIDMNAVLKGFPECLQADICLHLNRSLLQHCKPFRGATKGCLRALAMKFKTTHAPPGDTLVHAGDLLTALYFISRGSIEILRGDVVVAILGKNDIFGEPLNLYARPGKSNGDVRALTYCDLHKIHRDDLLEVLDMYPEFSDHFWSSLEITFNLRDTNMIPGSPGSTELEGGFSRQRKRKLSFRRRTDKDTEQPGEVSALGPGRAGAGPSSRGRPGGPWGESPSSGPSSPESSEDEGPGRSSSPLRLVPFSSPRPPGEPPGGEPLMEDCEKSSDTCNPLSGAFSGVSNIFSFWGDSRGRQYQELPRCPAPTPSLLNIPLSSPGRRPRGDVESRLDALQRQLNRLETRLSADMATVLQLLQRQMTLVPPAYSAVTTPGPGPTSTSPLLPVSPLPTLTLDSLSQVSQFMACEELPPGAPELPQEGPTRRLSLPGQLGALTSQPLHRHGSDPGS
Regarding `Cc1ccc(NC(=O)COC(=O)C(CC(C)C)N2C(=O)C3CC=CCC3C2=O)c(C)c1` (stereo not drawn), the “hERG current change (%, negative = inhibition) at 10uM” value is given as -6.2%.

For `O=c1o[nH]c(-c2ccccc2)c1-c1ccccc1`, the “hERG current change (%, negative = inhibition) at 10uM” value was 0.0608%.

Consider `O=C1CC(NS(=O)(=O)c2ccc([N+](=O)[O-])cc2)CN1c1ccc(Cl)cc1` (stereo not drawn), for which the “hERG current change (%, negative = inhibition) at 10uM” value was -66.6%. With `COc1ccc(NC(=O)CN(C)C(=O)COc2ccccc2Cc2ccccc2)cc1`, the “hERG current change (%, negative = inhibition) at 10uM” value is reported as -29.1%. In the case of `CC(C)CC(NS(=O)(=O)c1cccc(C(=O)O)c1)C(=O)O` (stereo not drawn), the “hERG current change (%, negative = inhibition) at 10uM” value is given as 44.6%.

Take `CC(Oc1ccc(F)cc1F)C(=O)NNC(=S)NCC1CCCO1` (stereo not drawn): the “hERG current change (%, negative = inhibition) at 10uM” value amounted to 9.12%.

For `CCN1CCS/C1=C/C=C/C1=[N+](CC)CCS1.[I-]`, the “hERG current change (%, negative = inhibition) at 10uM” value worked out at 24.7%. In the case of `C=CCN(C#N)c1nc(OC)nc(N2CCCC2)n1`, the “hERG current change (%, negative = inhibition) at 10uM” value was determined as 9.23%.

As to `O=C1NC(=O)C(c2cccs2)(c2cccs2)N1`, the “hERG current change (%, negative = inhibition) at 10uM” value is 16.1%. Consider `COc1ccccc1NC(=O)COC(=O)C12CC3CC(CC(Cl)(C3)C1)C2`, for which the “hERG current change (%, negative = inhibition) at 10uM” value is given as -4.28%. As to `Cc1ccc(CNC(=O)CCCCCNC(=O)N2CCn3c2nc2ccccc23)cc1`, the “hERG current change (%, negative = inhibition) at 10uM” value is on record as -0.874%. For `C#CCOCCOCCOCCNc1nc(N2CCN(C(=O)[C@H](CCCCN)n3cc(C(N)CC(C)C)nn3)CC2)nc(N2CCN(C(=O)[C@H](CCC(=O)O)n3cc(C(N)[C@H](C)CC)nn3)CC2)n1.Cl` (stereo partly drawn), the “hERG current change (%, negative = inhibition) at 10uM” value is given as 18.1%. With `Cc1ccc(CNC(=O)N2CCN(C)CC2)cc1`, the “hERG current change (%, negative = inhibition) at 10uM” value was -2.54%. The figure for `CCC(C(=O)O)P(=O)(c1ccc(Cl)cc1)c1ccc(Cl)cc1` (stereo not drawn) is 18.4%. On to `O=C(CCCC(=O)NC1CCCC1)NC1CCCC1`, for which the “hERG current change (%, negative = inhibition) at 10uM” value is given as 6.45%. Regarding `CCOC1(NC(=O)c2ccccc2)C(C)=CC(=O)C=C1C`, the “hERG current change (%, negative = inhibition) at 10uM” value is reported as -21.6%. As to `CC1=CCC(C(=O)N/N=C/c2cccs2)C(c2ccc(F)cc2)C1` (stereo not drawn), the “hERG current change (%, negative = inhibition) at 10uM” value is reported as -14.9%. On to `Oc1ccc2[nH]ccc2c1`, for which the “hERG current change (%, negative = inhibition) at 10uM” value worked out at 2.88%.

Consider `COc1cc2cc(CCOC(=O)c3ccco3)oc(=O)c2cc1OC`, for which the “hERG current change (%, negative = inhibition) at 10uM” value is given as 8.37%.

Take `O=C1CSC(c2ccncc2)N1Cc1ccco1` (stereo not drawn): the “hERG current change (%, negative = inhibition) at 10uM” value is reported as -1.73%. On to `CSC1=NCCN1S(=O)(=O)c1ccc(F)cc1`, for which the “hERG current change (%, negative = inhibition) at 10uM” value is -10.2%. The figure for `CC(OC(=O)C(NC(=O)c1ccco1)C(C)C)C(=O)Nc1ncc(Cl)cc1Cl` (stereo not drawn) is -10.4%. `COc1ccc(N2C(=O)/C(=C3/C=CC=CN3C)SC2=S)cc1`: the “hERG current change (%, negative = inhibition) at 10uM” value is given as -9.89%. `COC(=O)N/N=C/c1cccnc1`: the “hERG current change (%, negative = inhibition) at 10uM” value is listed as 9.58%. The figure for `CCOc1ccc(NC(=S)N/N=C(\C)Cc2ccc(OC)cc2)cc1` is 2.3%. For `COc1ccc(S(=O)(=O)N(CC(=O)N2CCN(c3ccccc3)CC2)c2ccccc2)cc1`, the “hERG current change (%, negative = inhibition) at 10uM” value is reported as 5.82%. Regarding `COc1ccc(-n2cnc3cc(N)ccc32)cc1`, the “hERG current change (%, negative = inhibition) at 10uM” value came to 5.06%.

With `O=C(COC(=O)Cc1ccsc1)NCc1ccccc1`, the “hERG current change (%, negative = inhibition) at 10uM” value was found to be 19.6%. On to `O=C(Nc1ccc2c(c1)nc1n2CCOC1)C1CCCCC1`, for which the “hERG current change (%, negative = inhibition) at 10uM” value is recorded as 6.14%.

As for `Cc1cc(=O)n2c(n1)NC(Nc1cccc(C)c1C)=NC2c1ccccc1` (stereo not drawn), the “hERG current change (%, negative = inhibition) at 10uM” value turned out to be 13.5%. Regarding `O=C1NC(=O)C(=Cc2ccc(OCCOc3ccc([N+](=O)[O-])cc3)cc2)C(=O)N1`, the “hERG current change (%, negative = inhibition) at 10uM” value was -28.2%. On to `Cc1ccc(S(=O)(=O)N(C)C)cc1NC(=O)COC(=O)COc1ccccc1[N+](=O)[O-]`, for which the “hERG current change (%, negative = inhibition) at 10uM” value is -14.1%. As for `Cc1cc(NC(=O)CSCc2nc(-c3cccc(F)c3)oc2C)no1`, the “hERG current change (%, negative = inhibition) at 10uM” value is 0.986%.

Take `Cc1nc(NC(=S)NC(=O)c2cccs2)ccc1Br`: the “hERG current change (%, negative = inhibition) at 10uM” value worked out at 15.3%.

Consider `Cc1cc(/C=C2/C(=O)NC(=O)N(c3ccccc3)C2=O)c(C)n1-c1ccc(F)cc1`, for which the “hERG current change (%, negative = inhibition) at 10uM” value worked out at 2.05%.

As for `Cc1ccc(CNC(=O)C2CCN(S(=O)(=O)N3CCCCC3)CC2)cc1`, the “hERG current change (%, negative = inhibition) at 10uM” value was -11.4%. On to `CCOC(=O)C1CCN(C(=O)COc2ccc(N(C)S(=O)(=O)c3ccc(C)cc3)cc2)CC1`, for which the “hERG current change (%, negative = inhibition) at 10uM” value is -57.7%. The figure for `COc1cccc(CNCCOCCO)c1OC.Cl` is 3.47%; for `Cc1ccc(O)c(NC(=O)c2ccc3c(c2)C(=O)N(Cc2cccnc2)C3=O)c1` it is 1.97%; for `Cc1ccnc(SCCn2c(N3CCCCC3)nc3c2c(=O)n(C)c(=O)n3C)n1` it is 9.39%.

For `Cc1ccc(Oc2ncccc2CO)cc1`, the “hERG current change (%, negative = inhibition) at 10uM” value came out at 15.3%. `Cc1ccc(NC(=O)c2ccc(N/N=C/c3cccc(O)c3)c([N+](=O)[O-])c2)cc1`: the “hERG current change (%, negative = inhibition) at 10uM” value was found to be 15.8%. On to `Cc1cc2n(c1)CCn1c(C)ccc1-2`, for which the “hERG current change (%, negative = inhibition) at 10uM” value was found to be 24.5%. For the compound `O=C(Nc1ccccc1)N(Cc1cccs1)C1CCCC1`, the “hERG current change (%, negative = inhibition) at 10uM” value was determined as 0.732%.

With `CC(=O)Nc1ccc(NC(=O)C(C)OC(=O)C2CCC2)cc1` (stereo not drawn), the “hERG current change (%, negative = inhibition) at 10uM” value is given as -4.73%.
